Data published in article PMC12136788.
This is one part of the list.

T1: UNK ZnF1-3 (human, UniProt Q9C0B0 31-174)
T1 sequence: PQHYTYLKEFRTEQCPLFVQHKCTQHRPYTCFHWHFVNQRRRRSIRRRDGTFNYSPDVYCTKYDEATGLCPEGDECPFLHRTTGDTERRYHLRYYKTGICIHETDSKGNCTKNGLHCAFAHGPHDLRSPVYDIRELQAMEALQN

B1: chr14:103969519:103969520:+_ENSG00000075413_ENST00000216288|hu_hu|FALSE|FALSE (ssRNA)
RNA: GGGAGUUCUACAGUCCGACGAUCAUCACUGGGUUACAGCUUUAGCUCAUUGGCAAUUUUGGAAGCAAUAUUUUUGAAGGCUAUGGAUGUCCCCGAUAUCCGCUUAAACCGGACCCCGUUCAGAGACAGUCUUGGCAGCUUGCACAACAGAGGAUUGAGCAUCA
B2: chr3:32568357:32568358:-_ENSG00000144635_ENST00000273130|hu_mus|motif|central (ssRNA)
RNA: GGGAGUUCUACAGUCCGACGAUCCGUAGGAGAUGUAGGUGUUGUAGGAGAAACAGAAGCAGGUUUCCGUGUGAUUCUGUCGGGCUCUGCGUGAACAUCUGAAAGCACAGGUUUCUGGCCUGACUUUUUGGCGGACGGUGGCAACAACAGAGGAUUGAGCAUCA
B3: 169404172_169417782_497_CDS_ENSG00000172292_ENST00000392687|human|control|control (ssRNA)
RNA: GGGAGUUCUACAGUCCGACGAUCUUGUCGAAACCAGCGCUGAAUGCUUCGAACAUCCCAGUCCAGUUGCUUGGAGAGGCCUUCCAAUCUCUUUUCAUCAGGAUGCUUUGUAAUUGCAGUGAAGACCUUUUCCAGAAUGGCAUUCAACAGAGGAUUGAGCAUCA
B4: chr4:83987663:83987664:+_ENSG00000138663_ENST00000264389|hu_hu|motif|central (ssRNA)
RNA: GGGAGUUCUACAGUCCGACGAUCACGUCCUUCGGUUAUCAUUUGAGAUGCUAUCUUUUCCGCCUUAGCUGCAGGGAUCUCGGAAAGAGCUCCAAGUUCUUCGAAGGUAAUAUUAUUAUAUAAUUUGCUUGCAGACAACAAAUUCAACAGAGGAUUGAGCAUCA
B5: chr1:58468927:58468928:-_ENSMUSG00000026034_ENSMUST00000148330|mus_mus|mus_mus_mus_hu_False|48_58 (ssRNA)
RNA: GGGAGUUCUACAGUCCGACGAUCAAUUACUGAAAAAGAUGUUCAUUACCUUAGCUAUGUACUUAAUGAACCAAAUUAUCUAAAAAACAUAAAAUGUGCAAUAUAAAAAUGUUAAGAAUUUACAAAGCUGUACAAAAUAACUUACAACAGAGGAUUGAGCAUCA
B6: chr9:34402745:34402746:-_ENSG00000164970_ENST00000297620|hu_hu|FALSE|FALSE (ssRNA)
RNA: GGGAGUUCUACAGUCCGACGAUCGGGGACGACCAGCCUUGUUCGGGCCAUGACAUUGUUCUUCUUGGGUUGCUGGUUGACAGGGCUACCCAUGCUGCCAUUCUUCAGGGAGCCCUUCCGGGCCAGCUCCCGCUGCUUCUCCUCCAACAGAGGAUUGAGCAUCA
B7: 88341318_88341438_1838_3pUTR_ENSMUSG00000074480_ENSMUST00000172699|mouse|control|control (ssRNA)
RNA: GGGAGUUCUACAGUCCGACGAUCGCAAAAUGACAUGUGGAUAGGGAGAAGGGAAAGGUCAGGAUGUGUGUCCUGGUGGCCACUUCUGGCUAAACAAAAGCUUCUCUUAGCUGCUUCCAGAUUUAAGGGUGUGUUGAGGUAUCACAACAGAGGAUUGAGCAUCA
B8: chr8:104447970:104447971:+_ENSG00000164934_ENST00000297579|hu_hu|hu_hu_hu_mus_False|8_8 (ssRNA)
RNA: GGGAGUUCUACAGUCCGACGAUCAUACACUUCCCUGCUUCGGCUCUUGUCCACAGGAAAGAUUCUAAUAGACUUAUCAAAGCUGGCAGACACAAAUUCCUUCCCAGUGGGAGAGUAGUCCACAUCAAGCACUGCAGACACGUGCAACAGAGGAUUGAGCAUCA
B9: chr16:94690422:94690423:+_ENSMUSG00000040785_ENSMUST00000117648|mus_mus|FALSE|FALSE (ssRNA)
RNA: GGGAGUUCUACAGUCCGACGAUCAUGUAUUCAAGGUUCACAUGUCUGUAUUUGCCACUGCCUACAGGUCACUAAAAAUACCUAGUUUUUGAAUAGUUUCUAAUACAGUUAGCUUGUUUUCAGGCCACAUUACAAGAUUGCAUGCAACAGAGGAUUGAGCAUCA
B10: chr5:151611259:151611260:+_ENSMUSG00000034021_ENSMUST00000016569|mus_mus|motif|central (ssRNA)
RNA: GGGAGUUCUACAGUCCGACGAUCGCAUUUCUGAACAUAAUGUUCAAGAAGUAAUAUCUAUACACAAUAACAUUCGGGACGGUUAAAAGCCCAUUCAAAUUACAGAAUUUUAUUGAUACAGUAGAUUAAUAUAAACUGAAAAAACAACAGAGGAUUGAGCAUCA
B11: 120821320_120821440_3349_CDS_ENSMUSG00000049878_ENSMUST00000056635|mouse|control|control (ssRNA)
RNA: GGGAGUUCUACAGUCCGACGAUCCUCAUAUUUGCAUCCUUGAAGCUCACAGAAGAAAGGCUUUGCCGCCAACUGUGCAAGGUACUGACUUGGCAUAUUUUCAUCCUGAUUCUGAAGAUUAACGUCUGAAAUGGAAGAUGGGACCAACAGAGGAUUGAGCAUCA
B12: chr2:117004238:117004239:+_ENSMUSG00000027351_ENSMUST00000028829|mus_mus|motif|central (ssRNA)
RNA: GGGAGUUCUACAGUCCGACGAUCUUAACUACUCAACACAUAUGGAAUGUGGUGGCAGAUAUGUGCACAUCUACCUCAGAACGGGGAAGGGCAAGAAAAGUUUAAUAUGUCAUAGUUCGUACCUUACAUUUAGUUAAAUAUAAACAACAGAGGAUUGAGCAUCA
B13: chr2:48026839:48026840:+_ENSG00000116062_ENST00000540021|hu_hu|hu_hu_hu_mus_False|58_98 (ssRNA)
RNA: GGGAGUUCUACAGUCCGACGAUCAUAGUGAGCCACUAGAGUCCUAAAUCUGGAACAGUGGCGGUCAUCCGAAAACUGACCUAUGAAAAACUUGCCCAGUGAAGUGUCCACAAAGCAAACACCAUACACACGAGUGUGACCAGACAACAGAGGAUUGAGCAUCA
B14: chr4:34756745:34756746:-_ENSMUSG00000039967_ENSMUST00000047950|mus_hu|FALSE|FALSE (ssRNA)
RNA: GGGAGUUCUACAGUCCGACGAUCUAUAUUUGGAUUUAUGACACUUUCCAUUGAGGACAACAAUGGAGUUGACACACUUGCUAAAUGAGCUGGAAAAAUGGGUGGCGAGACAUGCUGCAACUGGGCCGAACAAGCAGGAUUCCCCAACAGAGGAUUGAGCAUCA

These binders were tested against T1, UNK ZnF1-3 (assay: nsRBNS (natural sequence RNA bind-n-seq); RBNS binding buffer (assumed for nsRBNS): 25 mM Tris pH 7.5, 150 mM KCl, 3 mM MgCl2, 0.01% Triton X-100, 500 ug/ml BSA, 20 U/ml SUPERase-In, 4 C; UNK is unkempt and MSI1 is Musashi-1; names of the RNAs are library labels; protein concentration not given here; high values mean tight binding).
With B1 the binding signal was 0.881 enrichment R. Work on B2 yielded a binding signal of 0.886 enrichment R. For B3, the binding signal was 0.659 enrichment R. Binder B4 has a binding signal of 0.952 enrichment R. B5 gave a binding signal of 1.8 enrichment R. With B6 the binding signal was 0.601 enrichment R. In the case of B7, the binding signal is reported as 1.32 enrichment R. Work on B8 yielded a binding signal of 1.23 enrichment R. B9 gave a binding signal of 0.883 enrichment R. Binder B10 has a binding signal of 2.91 enrichment R. B11 showed a binding signal of 1.59 enrichment R. Binder B12 has a binding signal of 1.06 enrichment R. B13 was tested, and the binding signal was 1.18 enrichment R. B14 was tested, and the binding signal was 1.66 enrichment R.
